Here are results for 85 compounds from ChEMBL document CHEMBL4888484, “Replenishing the malaria drug discovery pipeline: Screening and hit evaluation of the MMV Hit Generation Library 1 (HGL1) against asexual blood stage Plasmodium falciparum ,using a nano luciferase reporter read-out” (2022).

The campaign covered roughly 150,000 compounds. About 540 (0.36%) showed an effect of 50% or more. The list shows a part of the results.

The subject of this test is Plasmodium falciparum. The test is described as follows: Primary screen in NF54 nanoGlo assay, in single point, at 2uM, 72h; a lower Z score goes with more inhibition. The class given is functional, Erythrocyte. The conditions noted are these: timepoint 72 hour.
By % Inhibition is commonly meant the drop in the measured response relative to a control, in per cent. With `CNC(=O)[C@@H]1C[C@@H](NCc2ccc(C(C)C)cc2)CN1C(C)C`, the “% Inhibition” value was found to be 24% and the Z score is on record as -3.07.
Taken in the same sequence, the figures for `CC1=C(CN2CCO[C@H](C(=O)N(C)C)C2)C(C)(C)CCC1` were -22% and 2.35.
As to `CCN(CC)CCNc1nnc(-c2nc(C3CC3)no2)c2ccccc12`, the “% Inhibition” value is -12% and the Z score was 1.4.
Turning to `Cc1cc(Cl)cc(C(=O)NCC2CCCC2NS(C)(=O)=O)c1` (stereo not given), the “% Inhibition” value was found to be 3% and the Z score is listed as -0.35.
`COc1ccc(OC)c(-c2nc3c([nH]2)c(-c2cccnc2)nn3C)c1`: the “% Inhibition” value turned out to be 18% and the Z score was -2.29.
Taken in the same sequence, the figures for `CCN1CCN(C(=O)c2nc(-c3nn(-c4ccc(C)cc4)c(=O)n(CC)c3=O)no2)CC1` were 7% and -1.23.
The like results for `CCn1cc(S(=O)(=O)NC(=O)c2cccc(Cl)c2C)cn1` were, in that order, -3% and 0.37.
Taken in the same sequence, the figures for `CC(C)CCC(=O)N1CCC[C@H](N(CCN2CCCCC2)S(C)(=O)=O)C1` were -17% and 2.32.
On to `Cc1ccc(-c2noc(-c3cn(-c4ccc(C)c(C)c4)c(=O)c4ccccc34)n2)cc1C`, for which the “% Inhibition” value was -11% and the Z score is on record as 1.69.
Taken in the same sequence, the figures for `Cc1nc(C(C)C)sc1[C@H](C)N(C)Cc1ncc(C2CC2)o1` were -12% and 2.32.
Consider `Cc1cc(-c2cn3cc(C(=O)N(C)[C@@H](C)CCO)nc3c(=O)n2C)c(C)o1`, for which the “% Inhibition” value is on record as 0% and the Z score turned out to be 0.06.
The like results for `CCC(C)NC(=O)C(NC(=O)c1ccc(OC)cc1)C1CCN(C(=O)c2cccc(F)c2)CC1` (stereo not given) were, in that order, -24% and 2.1.
Take `CC(=O)N1CC(N[C@@H](C)c2nc(C(F)(F)F)cs2)C1`: the “% Inhibition” value amounted to 9% and the Z score was -1.55.
The like results for `CC(C)(CN1CCOCC1)Nc1ncc(C#N)c(N)n1` were, in that order, -4% and 0.53.
The like results for `Cc1nc(C(=O)NCCc2ccccc2)co1` were, in that order, 2% and -0.2.
Taken in the same sequence, the figures for `CCN(CC)C(=O)Cn1cc(-c2nc(CN3CCOCC3)no2)nn1` were -19% and 2.26.
Regarding `Cn1nc(CN(C2CCCC2)S(C)(=O)=O)c2c1CCC2`, the “% Inhibition” value was -12% and the Z score was 1.98.
The like results for `O=C(c1cscn1)N1CCOc2ccccc2[C@@H]1CO` were, in that order, -10% and 1.33.
`CC1=C[C@@H](CN2CCOCC2)[C@H](C(C)C)C[C@H]1Cc1nnc(-c2ccc(N(C)C)cc2)o1`: the “% Inhibition” value was -1% and the Z score is reported as 0.09.
`O=C(O)C1=C[C@@H](c2ccc(Cl)cc2)n2ncc(C(=O)Nc3ccc(F)cc3)c2N1`: the “% Inhibition” value is -4% and the Z score amounted to 0.65.
Taken in the same sequence, the figures for `Cc1cc(C)c2c(c1)N(S(=O)(=O)c1c[nH]c(C(=O)O)c1)CCC2` were 33% and -3.71.
Take `Cc1noc(C)c1CCCNC(=O)c1ccc(N2CC[C@H](N(C)C)C2)nc1`: the “% Inhibition” value is recorded as -10% and the Z score turned out to be 1.28.
As to `Cc1c(-c2cc(C(=O)N3[C@@H]4CC[C@H]3CN(C)C(=O)C4)no2)cnn1C`, the “% Inhibition” value is given as -7% and the Z score was determined as 0.65.
Taken in the same sequence, the figures for `O=C(O)C1(n2cnc3ccccc32)CCN(C/C=C/c2ccco2)CC1` were -14% and 1.37.
Taken in the same sequence, the figures for `O=C(Nc1ccc(N2CCOCC2)cc1)c1ccc2nsnc2c1` were -11% and 1.02.
Taken in the same sequence, the figures for `Cc1nnc(NC(=O)c2cc(=O)c(OCc3ccc(F)cc3)c[nH]2)s1` were 11% and -1.47.
As to `C[C@@H](c1ccccn1)N(C)Cc1cnc(C2CCCCC2)s1`, the “% Inhibition” value is given as -3% and the Z score is given as 0.25.
The like results for `C[C@H]1CCCCN1C(=O)c1ccc(NC2CCOCC2)cc1` were, in that order, -9% and 1.37.
As for `CC1CCCN(C(=O)CC2CC3CCC2C3)C1` (stereo not given), the “% Inhibition” value was -12% and the Z score worked out at 1.32.
In the case of `Cc1ccc(-c2ccc(=O)[nH]n2)cc1S(=O)(=O)NC1CCCCC1`, the “% Inhibition” value is -34% and the Z score was found to be 2.99.
Turning to `CN(Cc1cscn1)S(=O)(=O)Cc1ccc(Cl)cc1F`, the “% Inhibition” value is listed as -6% and the Z score turned out to be 1.13.
With `CO[C@H]1COCC[C@@H]1Nc1ccnc2ccc(C)cc12`, the “% Inhibition” value is on record as -12% and the Z score stood at 1.92.
Taken in the same sequence, the figures for `CCc1nc2nnc3c(=O)n(-c4ccc(C)c(C)c4)ccc3n2n1` were -15% and 2.09.
Taken in the same sequence, the figures for `CCOCCc1nc(C)n(-c2cc(S(N)(=O)=O)ccc2F)n1` were -13% and 1.18.
As to `COc1ncc(NC(=O)Nc2ccccc2OC)cn1`, the “% Inhibition” value amounted to 0% and the Z score is -0.05.
Take `COCCN(Cc1ccncc1Cl)C(C)(C)CO`: the “% Inhibition” value is -4% and the Z score is given as 0.47.
Take `Cc1cc(C)n(-c2nnc(C)n2NC(=O)c2ccccc2Cl)n1`: the “% Inhibition” value is given as -16% and the Z score turned out to be 2.22.
The like results for `Cc1cc(CN(C)C(=O)c2ccc(-c3nc(C)c4c(n3)CCCC4)cc2)no1` were, in that order, -2% and 0.38.
The like results for `COc1ccc(S(=O)(=O)Nc2c(C)cc(C)cc2C)cc1N(C)S(C)(=O)=O` were, in that order, -9% and 1.49.
Regarding `CCNC(=NCC(CC(C)O)c1ccccc1)N1CCOCC1` (stereo not given), the “% Inhibition” value is recorded as -3% and the Z score was determined as 0.29.
In the case of `Cc1ncc(C(=O)N2CCC[C@@]3(CCC(=O)N(CCc4ccccn4)C3)C2)cn1`, the “% Inhibition” value is on record as -9% and the Z score was 1.57.
The like results for `COc1ccc(C2=NN(c3ccccc3)[C@@H]3C(=O)N(c4cccc(Cl)c4)C(=O)[C@H]23)cc1` were, in that order, -2% and 0.46.
Taken in the same sequence, the figures for `NC(=O)N1C[C@@H]2CCC[C@]2(C(F)(F)F)C1` were 2% and -0.42.
Take `COCCn1cncc1CN1CCN(c2ccccc2F)CC1`: the “% Inhibition” value is on record as -9% and the Z score is reported as 1.07.
Turning to `Cc1cc(=O)n(CCN2CCOCC2)c(N2CCCCC2)n1`, the “% Inhibition” value is -14% and the Z score is 1.4.
The like results for `Cc1nnc(N2CCN(C(=O)c3ccco3)CC2)c(C#N)c1C` were, in that order, -19% and 1.71.
Taken in the same sequence, the figures for `O=C(CCC(=O)N(Cc1cccc(O)c1)CC1CC1)c1ccccc1` were -1% and 0.19.
Taken in the same sequence, the figures for `COc1ccc(-c2cccc(C(=O)NC3CC3)c2)cc1F` were -20% and 2.95.
In the case of `Cc1n[nH]c(C)c1NC(=O)c1cc(F)c[nH]1`, the “% Inhibition” value worked out at 1% and the Z score was -0.15.
The like results for `COc1ccc(C)cc1S(=O)(=O)NC(C)(C)C` were, in that order, -2% and 0.46.
With `CC(C)(C)OC(=O)N1CC(OC(=O)CC2(CS(C)(=O)=O)CC2)C1`, the “% Inhibition” value is -13% and the Z score was 1.78.
Regarding `Cc1ccc(C(=O)NCCOc2ccc3c(c2)OCO3)s1`, the “% Inhibition” value is recorded as -7% and the Z score is reported as 1.42.
Take `CCn1nc(C(F)F)cc1-c1ccco1`: the “% Inhibition” value is on record as -1% and the Z score stood at 0.13.
Taken in the same sequence, the figures for `Cn1c(C(=O)NCCCN2CCOCC2)cc2c1CCN(Cc1ccccc1)C2` were -8% and 1.31.
`Cc1nc(N2CCCCC2)c2sc(=S)n(Cc3ccccc3)c2n1`: the “% Inhibition” value was -6% and the Z score amounted to 1.2.
The like results for `C[C@@]1(C(=O)NC2CCCCCCC2)CCC(=O)N1Cc1cccs1` were, in that order, 12% and -1.54.
The like results for `CC(C)CN(CCC(=O)O)C(=O)c1ccccc1` were, in that order, -12% and 1.12.
On to `Cn1c(=O)[nH]c2ncc(-c3cccc(C(=O)NCCCc4c[nH]c5ccccc45)c3)cc21`, for which the “% Inhibition” value was -12% and the Z score is recorded as 1.57.
Taken in the same sequence, the figures for `CCn1nccc1[C@H]1OCC[C@@H]1CNC(=O)N[C@H]1Cc2ccccc2[C@H]1C` were -14% and 1.28.
Turning to `CNC(=O)[C@@H]1CC[C@](C)(c2ncnn2C)C1(C)C`, the “% Inhibition” value was -11% and the Z score is 2.11.
Taken in the same sequence, the figures for `O=C(Nc1cnc(Oc2ccccc2)nc1)C(c1ccccc1)c1ccccc1` were 5% and -0.91.
The like results for `CC1(C)CC(NC2CCOC2=O)C(C)(C)O1` (stereo not given) were, in that order, -10% and 1.23.
Taken in the same sequence, the figures for `CCOC(=O)N1CCN(C(=O)Cn2ccc3c(OC)cccc3c2=O)CC1` were -15% and 2.79.
`Cc1ccc(NC(=O)C(=O)N2CCCN(Cc3ccccc3C)CC2)cn1`: the “% Inhibition” value was -11% and the Z score is 1.19.
On to `CC(C)(C)c1nnc(CS(=O)(=O)Cc2ccccc2F)o1`, for which the “% Inhibition” value is on record as -12% and the Z score turned out to be 1.77.
For `Cc1cc(C(=O)N2CCC[C@H]2c2nnc3ccccn23)c(C)s1`, the “% Inhibition” value worked out at 6% and the Z score is recorded as -0.72.
Consider `CC(C)c1noc(N(CCO)C2CC2)n1`, for which the “% Inhibition” value is listed as -5% and the Z score is 0.74.
For the compound `CC(C)Oc1ccc(NC(=O)OCC(F)(F)F)cc1`, the “% Inhibition” value is listed as -7% and the Z score amounted to 1.17.
Consider `CC(C)c1nc(C2CCN(C(=O)[C@H]3C[C@@H]3C(F)F)CC2)no1`, for which the “% Inhibition” value is given as -14% and the Z score was 1.86.
As for `COc1ccc(NC(=O)N2CCN3C(=O)CNC(=O)[C@@H]3C2)c(C)c1`, the “% Inhibition” value is -5% and the Z score came out at 0.64.
On to `CCN1CCC[C@H](NC(=O)c2cccc(OCc3ccc(F)cc3)c2)C1`, for which the “% Inhibition” value was 2% and the Z score was -0.29.
As to `Cc1cccc(-c2ccc(C(=O)N(C)C(C3CC3)C3CC3)c(=O)[nH]2)c1`, the “% Inhibition” value is reported as 0% and the Z score is given as 0.04.
The like results for `COC(CNC(=O)c1c[nH]c(C)cc1=O)(OC)c1ccccc1` were, in that order, -12% and 1.69.
Taken in the same sequence, the figures for `CCOc1ccc2c(c1)[C@H](NC(C)=O)C(=O)N2Cc1cc2c(cc1Cl)OCO2` were -4% and 0.59.
In the case of `Cc1occc1C(=O)N[C@@H](C)CCc1ccccc1`, the “% Inhibition” value was 0% and the Z score is listed as -0.06.
`CCN(CCOC)Cc1cc(CC(C)C)nn1C`: the “% Inhibition” value is given as -12% and the Z score stood at 1.69.
Taken in the same sequence, the figures for `CCc1ncnc(NCc2cccc(N)n2)c1F` were -5% and 0.88.
The like results for `COc1ccccc1[C@@H](NC(=O)Cn1cnnn1)c1ccco1` were, in that order, -9% and 1.46.
The like results for `COC(=O)CN(CN1C(=O)c2cc(Cl)c(Cl)cc2C1=O)[C@H]1CCS(=O)(=O)C1` were, in that order, -2% and 0.18.
As for `Cc1cc[nH]c1C(=O)N1C[C@@H](O)C[C@H]1CO`, the “% Inhibition” value is -10% and the Z score is recorded as 1.42.
The like results for `COCCN1C(C)CN(S(=O)(=O)N(C)C(C)CC#N)CC1C` (stereo not given) were, in that order, -8% and 1.09.
Turning to `COc1ccc(OC)c(-c2n[nH]cc2CN2CC(F)(F)C[C@H]2CN2CCCCC2)c1`, the “% Inhibition” value is reported as -12% and the Z score amounted to 2.14.
Consider `C[C@H](NCC(C)(C)N)c1cccc(Br)c1`, for which the “% Inhibition” value is recorded as -2% and the Z score is 0.35.
Taken in the same sequence, the figures for `Cc1ccc(C)c(OCc2cc(C(=O)N(C)[C@H]3CCN(C)C3)no2)c1` were -25% and 2.2.
The like results for `CCn1nc(-c2cc(OC(F)(F)F)ccc2O)nc1N(C)C` were, in that order, -8% and 1.09.
